# Assay results from paper PMC6919601, “Identification of Plasmodium dipeptidyl aminopeptidase allosteric inhibitors by high throughput screening” (PLoS ONE, 2019).
# The campaign covered roughly 110,000 compounds. About 230 (0.21%) showed an effect of 50% or more. This is one part of the list.
# Molecular target: DPAP1 (Plasmodium falciparum, UniProt Q8IIJ9)
# Test: primary screen, percent inhibition; read by cleavage of a fluorogenic dipeptide substrate; higher = more effect of the substance
# Set-up: species or system P. falciparum D10 trophozoite lysates; single well
# 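Further: 30 min substrate incubation versus DMSO and 10 µM JCP410 controls.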
# Chain of DPAP1 (Q8IIJ9 whole entry, looked up): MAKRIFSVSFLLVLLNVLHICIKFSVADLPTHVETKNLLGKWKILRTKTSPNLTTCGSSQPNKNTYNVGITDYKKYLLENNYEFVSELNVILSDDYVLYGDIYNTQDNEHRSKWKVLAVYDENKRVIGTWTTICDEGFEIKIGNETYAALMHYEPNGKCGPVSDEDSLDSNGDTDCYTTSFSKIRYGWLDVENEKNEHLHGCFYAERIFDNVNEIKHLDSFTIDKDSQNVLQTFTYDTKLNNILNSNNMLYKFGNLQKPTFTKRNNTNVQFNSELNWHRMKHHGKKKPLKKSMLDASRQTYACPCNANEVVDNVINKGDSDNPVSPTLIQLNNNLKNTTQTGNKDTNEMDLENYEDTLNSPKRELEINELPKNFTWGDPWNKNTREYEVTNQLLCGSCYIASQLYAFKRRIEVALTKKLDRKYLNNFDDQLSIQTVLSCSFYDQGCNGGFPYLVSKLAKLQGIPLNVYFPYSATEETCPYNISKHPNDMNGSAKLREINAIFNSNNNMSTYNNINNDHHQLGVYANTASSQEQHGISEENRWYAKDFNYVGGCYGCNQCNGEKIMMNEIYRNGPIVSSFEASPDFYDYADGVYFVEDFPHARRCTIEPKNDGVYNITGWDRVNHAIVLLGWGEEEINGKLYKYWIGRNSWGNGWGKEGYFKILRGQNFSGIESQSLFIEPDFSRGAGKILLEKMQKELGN
row,Structure (SMILES),% Inhibition @ 10 uM [%]
1,Cc1ccc2[nH]c3c(N4CCCCC4)ncnc3c2c1,-7.23
2,Cc1cccc(OS(=O)(=O)NC(=O)OCC2CCCN3CCCCC23)c1 (centres unmarked),0.9
3,CCN(CC)CCn1c2ccc(C)cc2c2nc3ccccc3nc21,3.36
4,Cc1[nH]c2ccccc2c1C=C1C(=O)N(C)C(=O)N(C)C1=O,0.266
5,Cc1cccc2sc(NC(=O)Cn3cccc3)nc12,-2.42
6,CCCN(CCC)C(=O)/C(=C/c1cn(CC)c2ccccc12)NC(=O)c1ccccc1,1.64
7,CCOc1ccc(CN2CCCN(C)CC2)cc1,4.67
8,CC(NC(=O)Cc1ccccc1)c1cc2c(cc1Br)OCCO2 (centres unmarked),-3.26
9,COc1cc(NC(=O)c2cccc(OC(F)F)c2)c(OC)cc1Cl,-2.83
10,O=S(=O)(NCC1CCCO1)c1cc(Cl)ccc1Cl (centres unmarked),3.48
11,O=c1oc2c3c(ccc2c2c1CCCC2)OCN(c1cccnc1)C3,1.27
12,CCC(C)/N=c1/c(-c2ccc(C(C)C)cc2)c(O)c1=O (centres unmarked),-7.52
13,Cc1ccc2c(NC(=O)c3ccccc3F)cccc2n1,-2.91
14,O=S1(=O)Oc2cc(S(=O)(=O)N3CCn4c(nc5ccccc54)C3)cc3cccc1c23,-1.08
15,O=C(O)CN1C(=O)c2ccc(Oc3ccc(Cl)cc3)cc2C1=O,4.83
16,CCOc1cc(-n2ccc(C)n2)nc(-c2ccccc2)n1,1.59
17,CC(C)CC(C(=O)NCC#N)c1cccc(-c2ccc(S(=O)(=O)N3CCNCC3)cc2)c1 (centres unmarked),-4.72
18,CCOC(=O)C1CCN(C2CCC(C)CC2)CC1 (centres unmarked),-0.0953
19,c1ccc(CCNc2nc3ccccc3c3nc(-c4ccccc4)nn23)cc1,-2.42
20,CCOCCCNC(=O)C1CCC(=O)N1CCc1ccccc1 (centres unmarked),3.24
21,O=C1CCCC(c2cnc3ccccc3c2)C1 (centres unmarked),-0.759
22,Cc1nc(/N=C(/NC(=O)c2ccccc2)Nc2ccccc2)nc(O)c1C,-3.92
23,C1=C(c2ccccc2)CCN(c2nn3nnnc3c3ccccc23)C1,0.451

row,Structure (SMILES),% Inhibition @ 10 uM [%]
1,COc1cc2c(cc1OC)C(c1ccccn1)NCC2 (centres unmarked),-3.62
2,COc1cccc(CN2Cc3ccccc3C2=O)c1,-7.23
3,Cc1ccccc1-c1nn2c(Cn3cnc4ccccc43)nnc2s1,7.5
4,Cc1ccc(C(=O)Nc2nc3ccc(Br)cc3s2)o1,1.39
5,Cc1ccnc(NC2c3ccccc3C(=O)N2Cc2ccccc2)c1 (centres unmarked),-4.74
6,Cc1ccccc1-c1cc(C(=O)N2CCN(C)CC2)c2ccccc2n1,-7.9
7,CSc1nc2nc(-c3ccccc3)cc(O)n2n1,-1.11
8,CCCC(=O)Nc1cccc(NC(=O)COc2cccc3ccccc23)c1,-11.5
9,Cc1ccc([N+](=O)[O-])cc1NC(=O)c1cc2ccccc2cc1O,0.98
10,Cc1ccc2nc3c(O)n(CC(=O)NCCC(C)C)ncc-3c2c1,-1.97
11,O=C(Nc1nccs1)c1ccc(COc2ccccc2Cl)cc1,2.44
12,COc1ccc2c(c1)C1=NN(C(C)=O)C(c3cccc(F)c3)C1CC2 (centres unmarked),-2.69
13,NC(=O)CSc1nnnn1-c1cccc(O)c1,-5.51
14,Clc1cccc(N2CCN(CCCc3ccccc3)CC2)c1,0.472
15,O=C(/C=C/c1ccccc1)N(Cc1ccccc1)Cc1ccccc1,0.997
16,COC(=O)c1sccc1NC(=S)N1CCCCC1C (centres unmarked),-6.55
17,Cc1cc(C)nc(N2CCN(c3ccccn3)CC2)n1,-3.08
18,CCC(Oc1ccccc1)C(=O)Nc1cccc2ccccc12 (centres unmarked),-1.04
19,COc1ccc(/C=C2\S/C(=N/c3ccc(C(=O)O)cc3)N(C)C2=O)cc1OC,9.79
20,Cc1ccc(NC(=O)c2ccncc2)cc1,4.88
21,CN1CCN(S(=O)(=O)c2csc(C(N)=O)c2)CC1,2.18
22,CC1(C)Cc2nc3sc4c(=O)n(CC(=O)c5ccc(Cl)cc5)cnc4c3cc2CO1,-2.14
23,COc1ccc(NC(=O)c2cc(C)cc(C)c2)cc1,1.59

row,Structure (SMILES),% Inhibition @ 10 uM [%]
1,CC(=O)N1C(C(=O)NCc2ccc(C)cc2)CSC12CCN(C)CC2 (centres unmarked),-5.74
2,COc1ccc(CN2CCN(S(=O)(=O)c3ccc4[nH]c5c(c4c3)CCCC5)CC2)c(OC)c1OC,-3.92
3,CC1(C#CCN2CCOCC2)CC1(Cl)Cl (centres unmarked),1.7
4,COC(=O)c1cc(CN2CCN(C)CC2)ccc1O,-2.75
5,NCCSc1nnc2c(n1)[nH]c1ccccc12,77.5
6,Cc1cc(C(=O)NCc2ccc(C)o2)n[nH]1,2.28
7,CCOC(=O)c1c(NC(=O)c2ccccc2F)sc2c1CCN(C(=O)OCC)C2,0.997
8,CC(=O)c1ccc(NS(=O)(=O)c2ccc(Br)cc2)cc1,1.28
9,CC(C)C[C@H](NC(=O)c1cc(Br)cs1)C(=O)NCC#N,-1.41
10,O=C1N=C(Nc2ccc(Br)cc2)S/C1=C\c1ccccc1O,14.1
11,CC(C)NC(=O)C12CC3CCC(CC(C3)C1)C2,1.84
12,CCN1C(=O)N/C(=C/c2c(OC)cc(OC)cc2OC)C1=O,5.73
13,Cc1c(CNC(=O)c2nn3c(c2Cl)NC(c2ccccc2)CC3C(F)(F)F)cnn1C (centres unmarked),-0.864
14,O=C(Nc1ccc(S(=O)(=O)N2CCc3ccccc32)cc1)c1ccccc1Br,1.79
15,CCOc1ccccc1C(=O)Nc1ccc(OC)cc1OC,7.48
16,COc1ccc(C2C(C(=O)c3ccc(C)cc3)=C(O)C(=O)N2Cc2ccccc2)cc1OC (centres unmarked),-1.93
17,CCOc1ccc(-c2c(C)nn3c(O)c(N4CCC(C)CC4)c(C)nc23)cc1OCC,0.953
18,CCOC(=O)N1CCN(C2CCC(c3ccccc3)CC2)CC1 (centres unmarked),-3.6
19,Cc1c(C(=O)N2CCCCC2)sc(NC(=O)c2ccc(Br)cc2)c1C#N,1.01
20,Fc1ccc(-c2csc(N3N=C(c4ccccc4)CC3c3ccccc3)n2)cc1 (centres unmarked),-1.48
21,OCCSCCc1ccncc1,-2.51
22,O=C(CSc1ncnc2[nH]cnc12)N1CCN(c2ccccc2)CC1,-4.49
